# Test results: the supplement of paper PMC11417369
# ± gives the standard deviation of the averaged measurements. The list shows a part of the results.
# System: PfAP2-I AP2 domain 3 (GST-tagged)
# Test: gcPBM binding intensity (ln(normalized median fluorescence intensity)); higher = stronger DNA binding
# In short: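 DNA-binding domains from P. falciparum, fused to GST and produced in E. coli, were put on an Agilent 4 × 180k double-stranded probe array for 1 h in 1× PBS holding 1% milk, 0.2 mg/ml BSA, 0.5% salmon testes DNA and 0.03% Triton X-100. Probes were primer-extended, 36 bp long and drawn from intergenic genomic regions, with negative controls included. After Alexa488 anti-GST antibody detection and a 488 nm scan, binding intensity was set as the highest Masliner-normalised natural-log median intensity across replicate spots of either probe orientation.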
row,Sequence,gcPBM binding intensity (ln)
1,TTCTCATTCAAATTAGTGCATTTTTGTTATTACATT,9.81 ± 0.2
2,AAACAGAAGACATATACACACATACAAAAAAGTGCA [CACACA_site4699],7.79 ± 0.48
3,TGTGTATATATATAATGTACATAAAGATTTATATAT [XGTACX_site5835],7.82 ± 0.51
4,ATAGAAATATATATATGTACATATAGATAAATCTAT [XGTACX_site7833],7.54 ± 0.35
5,ATATGAAATAATAATAGTACATAAAATAATTTTACT [XGTACX_site6964],7.71 ± 0.36
6,ATAAATACAGATAACACACACATATATATATATATA [CACACA_site5431],9.19 ± 0.11
7,AAAAATAACGTAAATTGTACATGTAAAATTTTCTAT [XGTACX_site7158],7.62 ± 0.57
8,TGTTTTATACTAAATGAACACACACCCATATATATA [CACACA_site7912],8.39 ± 0.66
9,TTATTTATTTATAATAGTACAATTTAATGATCTTCT [XGTACX_site4831],7.54 ± 0.52
10,CAATATATTTGATTTACACACTTACAATGTATATAA [CACACA_site2994],7.91 ± 0.49
11,CCAACATGCCCACGCACACACAAAAAAAGCATGCAT [CACACA_site4217],8.06 ± 0.47
12,AATAATATATATATATATATAATAAAATATAAATAG [CACACA_negctrl_site1515],7.7 ± 0.49
13,AACCTAAGCATTCTTCAAATTATATATGTAAAATGA [CACACA_negctrl_site261],7.42 ± 0.79
14,TCGTATCTATTGAGGGTGCCTCTATAATTGATACAA [GTGCAC_site9636],8.35 ± 0.099
15,TAATATAATATATGCACACAAATATGTATTTATGTG [CACACA_site5210],9.14 ± 0.014
16,GAAAAAATAAAATAAAGTACATAACTATAATAAAAA [XGTACX_site4807],7.9 ± 0.34
17,ATATATAAACACTCTTGTACATAATAATGTATATAT [XGTACX_site2451],7.88 ± 0.38
18,CTTACACCCATATATACACACATGTATATTTTATAT [CACACA_site4462],8.09 ± 0.49
19,TACTCCTCAATATTATGTACATATAATAGTTATAAA [XGTACX_site8551],7.95 ± 0.27
20,TATATAACTGTCTTCAGTACACAATAAATAAAAATA [XGTACX_site8856],7.86 ± 0.41
21,TAATAAAAATAAAATTGTACTAATAACATTTCATTA [XGTACX_site3703],7.26 ± 0.33
22,TTTCAAAAAAATAGCTATATTTATATTAATGCACGA [TGCATGCA_negctrl_site63],11.9 ± 0.45
23,AAAGGTGTATATAATACACACGTGTGATTAAAATTG [CACACA_site8104],7.93 ± 0.55

row,Sequence,gcPBM binding intensity (ln)
1,AACTTTGAGACATAGTGTACTTACACAATCTTAATA [XGTACX_site3712],7.79 ± 0.43
2,ACATTTTTTTTTTTTTTTCTTTTTCTTTTTCTTTTT [CACACA_negctrl_site1295],7.72 ± 0.52
3,CATATTTGATACAAGTGTACTTTATTTAAAAATTCT [XGTACX_site8408],7.88 ± 0.17
4,TACATAAATATATGTGTGCACAATTTCGTATATTTA [GTGCAC_site9859],10.74 ± 0.064
5,TGTACATTCGGAGTAAAAAAAAATTTATACAATTAC [CACACA_negctrl_site1451],7.59 ± 0.66
6,AACAGATAAAAGGGTACACACATATATACCTGTACA [CACACA_site4285],8.06 ± 0.43
7,TGTATTAAATTTTGAACACACAAAATAAAACATATA [CACACA_site1672],7.71 ± 0.39
8,AGTATAAAATAAATGTGTACACAAGAAAATATGTTA [XGTACX_site8381],8.63 ± 0.29
9,AAAATCACAAGACACACACACACAAAAAAAAAAAAA [CACACA_site6791],7.95 ± 0.62
10,AAAATATTTTAATGTTGTACATTAATATATTATATA [XGTACX_site2513],7.52 ± 0.34
11,ATATATATATGTATGTGTCCACAAGGAGATATATAT [XGTACX_site783],9.045 ± 0.021
12,AGTAAATAATAGATCGCATGTAATAACTAGTAGGAA [TGCATGCA_site948],7.78 ± 0.81
13,ATTATAAAGACATATACACACATACGTACATACATA [CACACA_site5893],8.01 ± 0.57
14,ACAATTGAAGAAATACGTACATAAAGAAAAACTAGT [XGTACX_site820],8.39 ± 0.73
15,GTTGTTTCTATAAATTGTACTTAAATATAATTATAT [XGTACX_site585],8.19 ± 0.35
16,ATATATTGTATGTGCTCACACATGTTTCGATATTAT [CACACA_site4336],7.8 ± 0.71
17,GTAAATATGTTTATTAGTACACATATGAAAATAAAT [XGTACX_site5820],7.96 ± 0.38
18,GTTCAAAATATGAACACACACATATATATATATATA [CACACA_site2057],9.35 ± 0.38
19,ATCTACATATATTATTGTACATTGTTAAAAATTTAT [XGTACX_site7769],7.71 ± 0.54
20,TTTCGTAATATGCGTGTGCACAATGAGTCCATATCT,10.5 ± 0.35
21,TTTTTTTTTTTTTGGGGTACATTTTAATTAATATTA [XGTACX_site4866],8.17 ± 0.42
22,TAAAATATAATTAGCACACATATATAAAATATATAT [CACACA_site4093],8.12 ± 0.092
23,TATTTAATGCAAAAACGTACATAAATAACATTCACA [XGTACX_site5356],8.18 ± 0.014

row,Sequence,gcPBM binding intensity (ln)
1,TATATATATATTAGTGGTACAAGATTTTTTTCTTTT [XGTACX_site4619],9.17 ± 0.11
2,TATAAACACCCATATAAACACACATACATACATACA [CACACA_site8791],8.93 ± 0.49
3,TTTTTTCATAAATAATGTACATATATATATATATAT [XGTACX_site3620],9.4 ± 0.25
4,TCTTGTAGATATATTTGTACATATATTTATGGGTAT [XGTACX_site1139],7.88 ± 0.43
5,CTAGACTTTTTACAATGTACATATTTATGTATTATT [XGTACX_site1833],7.61 ± 0.46
6,AAAAAATATATATTAACACACACACTAATAAAAAAA [CACACA_site8366],8.05 ± 0.64
7,AAAATTTTTTACTTTACACACATTTTGTATATTTTG [CACACA_site1730],7.92 ± 0.63
8,ATATTATTTATAAGTTGTACGGTATAATATAATATA [XGTACX_site5371],7.76 ± 0.41
9,GGGAATATATTCAATTGTACATTCTTATTTTATCCA [XGTACX_site8480],7.82 ± 0.56
10,ACGCACGAAATAAATACATGCATATTGTAAAAATTA [TGCATGCA_site310],7.84 ± 0.4
11,TCTTTTTTTTTACATACTTTTTTCCTTTTTTTTTTA [CACACA_negctrl_site1429],7.73 ± 0.65
12,TTAAATACTAAAAAGTGTACACATACATAAAAAATT [XGTACX_site6261],8.35 ± 0.6
13,ATTATGTTAATAATATGTACATATATCTACATATAT [XGTACX_site7978],7.62 ± 0.38
14,ATTATTTTGTTTATTACATGCAGGTGTATATTACAG [TGCATGCA_site723],8.98 ± 0.34
15,GAGTATATTTATATTGCACACAATTTTTTTATTTTT [CACACA_site2644],10.3 ± 0.54
16,CATAAATGTCTCACATGTACATATGCATTTTTAAAA [XGTACX_site3194],7.97 ± 0.38
17,TATATATAATATTGCACACAAAATTAAAAGTAAATA [CACACA_site19],9.81 ± 0.67
18,TGCATAAATTTATGCACACATAAAAAAAAAAAAAAA [CACACA_site2923],10 ± 0.64
19,CAACTCTTATTTAATTATATGAATTAATTTATATGA [CACACA_negctrl_site200],7.28 ± 0.36
20,AAACATTTATCAATGAATCTTTTAATAAGTGTAAAG [XGTACX_negctrl_site80],7.56 ± 0.49
21,TCATTCAGTTTTATCACACACAATCAAACATATATA [CACACA_site2742],7.96 ± 0.37
22,ATTCAATATTTATACACACACACTTTTAATAATTAA [CACACA_site7725],8.05 ± 0.55
23,ATATATATAATAAATACACACATTTATATAGATAAA [CACACA_site3254],8.03 ± 0.58

row,Sequence,gcPBM binding intensity (ln)
1,TCAACATTCATTGGAAGTACTCACTCCCATATAATA [XGTACX_site5211],7.55 ± 0.33
2,AATATAAGGATATATACACACATAAATACATACATA [CACACA_site7859],7.67 ± 0.59
3,TATTTTTTTAGATATACATGCAAAAACAGAAGAAAT [TGCATGCA_site283],8.24 ± 0.58
4,TGAACTTTAAACCCTGAACACACACTAATACACCCA [CACACA_site7970],8.94 ± 0.3
5,AATATGTCATATATGTGTACATATGCACAGATATTA [XGTACX_site951],8.45 ± 0.37
6,ATAAAAAGAAATCCAATACACACCTTCAAAATGGGT [CACACA_site1622],7.71 ± 0.72
7,TAATAAATAAATGACACACACACACCCAAAAAAAAA [CACACA_site2623],8.53 ± 0.39
8,AGCTATGTATTCTACACACACATACACCCATATATA [CACACA_site5827],8.21 ± 0.56
9,TTATTAACCTAAATTAGTACATATAATATAAAAAAT [XGTACX_site8661],7.88 ± 0.52
10,AAAATATTATCTAATTGTACTTATATAACTATATAT [XGTACX_site5699],7.64 ± 0.49
11,TTGAAATGCATGAACACACACAGCTATAAATGCATA [CACACA_site968],7.78 ± 0.45
12,ATACTAAGGAGAAAAGAAAAGTGAATTTATTCTATA [CACACA_negctrl_site1792],7.39 ± 0.67
13,AAATTTATGAACCTAGTGCAGAAATTAAAAAGATGA [GTGCAC_site9396],9.32 ± 0.16
14,AAACCGTGGGAGCACACACACACACGCGCACATATA [CACACA_site6288],8.54 ± 0.47
15,TGTTTCTAAAAAAAAGGTACACATATATATAATATA [XGTACX_site3217],7.93 ± 0.28
16,GTAACCCACCAAAATGCACACATTAAAAAAAAAAAA [CACACA_site1046],9.46 ± 0.37
17,TATATATTATATATATGTACATATTTATTTTATTTT [XGTACX_site6989],7.79 ± 0.3
18,AATACCGGAAAGCAAACACACATTTGAAAACCATAA [CACACA_site7761],7.78 ± 0.69
19,AAAAAATTTCAAATGACATAATGTAATTTCCCTTTT [GTGCAC_negctrl_site673],7.26 ± 0.69
20,TTTATCAAAATAAATGCACACAAATTGCACATATCT [CACACA_site8281],10.31 ± 0.035
